Assay results as given in PubChem BioAssay AID686971 (National Center for Advancing Translational Sciences (NCATS), 2013).
The campaign covered roughly 360,000 compounds. About 7,500 (2.1%) were called active. This list was built around the results that the source calls inconclusive (neither active nor inactive); the mix of calls is not that of the screen. Calls come from the whole dose curve; as a rule, active = well fitted cell-killing curve with a large enough effect; inconclusive = small, poorly fitted or top-dose-only effect, or effect the other way, or another doubt; inactive = no such curve, though single readings can be large or run the other way. No potency is given beside an inconclusive call; the fits are too rough.

Assay: qHTS for induction of synthetic lethality in tumor cells producing 2HG: qHTS for the HT-1080-IDH1KD cell line;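 for activity, negative = toxicity: 0% = DMSO wells and -100% = cell-free medium wells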
Settings: HT-1080 IDH1 knockdown viability, ATP luminescence, 48 h; activity, negative = toxicity: at 46.1 µM (top of the series) unless noted
Outline: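 IDH1KD HT-1080 cells, 750/well, RPMI + 5% FBS; compound pinned after 2 h settling; 48 h, 37 °C; CellTiter-Glo luminescence; % activity normalised to DMSO and no-cell wells; curves fitted, classed by r2 and efficacy.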
Potency is the fitted concentration of half-maximal effect; tags give direction and shape of the fitted curve.

| Structure (SMILES) | Potency | activity, negative = toxicity |
| --- | --- | --- |
| COc1cc2c(cc1/C=C/[N+](=O)[O-])OCO2 | active: 8.2 µM |  |
| CC(C)OC(=O)CN1C(=O)C(=O)c2ccccc21 | inconclusive [cytotoxic, single point] |  |
| CCN(CC(=O)Nc1ccc(C#N)c(Cl)c1)CC(=O)NC(C)(C)C | inconclusive [cytotoxic, partial curve] |  |
| COc1ccc(C(=O)O/N=C(/C(N)=O)P(=O)(OC(C)C)OC(C)C)cc1 | inconclusive [cytotoxic, single point] |  |
| Cc1ccc(/C=C2\C(=O)NC(=S)N(c3ccccc3F)C2=O)s1 | inconclusive [cytotoxic, single point] |  |
| CC1=C(C)CC2(C(=O)NC(=S)NC2=O)C(C)C1 (stereo unspecified) |  | inactive: 14.3% |
| Cc1nc2ccccc2c(=O)n1/N=C/c1cc(Br)cc(Br)c1O | inconclusive [cytotoxic, partial curve] |  |
| N#CC12CC(=O)N1Cc1cnnn1-c1ccccc12 (stereo unspecified) |  | inactive: 21.7% |
| CC(=NCc1ccc2c(c1)OCO2)c1c(O)n(-c2ccccc2)c(=O)[nH]c1=O | inconclusive [cytotoxic, partial curve, poor fit] |  |
| C[CH2][Hg][S]c1ccccc1C(=O)O | active: 3.26 µM |  |
| COC(=O)c1cn(C(=O)c2cccc3ccccc23)c2ccccc12 | active: 13 µM |  |
| Brc1ccc(C2N3CCCN23)cc1 (stereo unspecified) |  | inactive: 13.2% |
| O=C(c1ccco1)c1cn(Cc2ccccc2)c2ccccc12 |  | inactive: -22.5% |
| O=C1NC(=O)C2(Cc3ccccc3N3CCOCC32)C(=O)N1c1ccccc1 (stereo unspecified) | active: 17.8 µM |  |
| CC(=O)OC[C@]12CCC(C)=C[C@H]1O[C@@H]1[C@H](O)[C@@H](OC(C)=O)[C@@]2(C)[C@]12CO2 | active: 0.206 µM |  |
| C[C@]12CC[C@H](O)CC1=CC[C@@H]1[C@@H]2CC[C@]2(C)C(=O)CC[C@@H]12 |  | inactive: -2.2% |
| COc1ccc(-n2nnnc2C(c2ccnc3ccccc23)N2CCC(n3c(=O)[nH]c4ccccc43)CC2)cc1 (stereo unspecified) | inconclusive [cytotoxic, single point] |  |
| CC1=C(C(=O)Nc2ccccc2)S(=O)(=O)CCO1 | inconclusive [cytotoxic, single point] |  |
| COc1ccc(C(=O)C2CCCN(Cc3cnc(C)s3)C2)c(OC)c1 (stereo unspecified) |  | inconclusive: -27.2% [cytotoxic] |
| CC(=O)O[C@@]12CO[C@@H]1C[C@H](OC1OCC(O)C(O)C1O)[C@@]1(C)C(=O)[C@H](O)C3=C(C)[C@@H](OC(=O)[C@H](O)[C@@H](NC(=O)c4ccccc4)c4ccccc4)C[C@@](O)([C@@H](OC(=O)c4ccccc4)C12)C3(C)C (stereo partly specified) | active: 5.8 µM |  |
| O=C1C2CCCN2C(c2ccncc2)N1c1ccc(Cl)c(Cl)c1 (stereo unspecified) |  | inactive: -9.58% |
| CCCNC(=O)c1c(N)n(Cc2ccco2)c2nc3ccccc3nc12 | inconclusive [cytotoxic, single point] |  |
| COc1cc(C(=O)NN=Cc2ccc(N(CCCl)CCCl)cc2)cc(OC)c1OC | active: 4.11 µM |  |
| Nc1ccccc1C(=O)OCC(=O)Nc1ccc(Br)cc1F |  | inactive: 0.745% |
| CCOC(=O)[C@]12Cc3c(cc(OC)c(OC)c3OC)[C@H]1N(C1CCCCC1)C(=O)c1ccccc12 | active: 2.91 µM |  |
| COc1ccccc1N1C(=O)NC(=O)/C(=C/c2ccc([N+](=O)[O-])s2)C1=O |  | inconclusive: -31.6% [cytotoxic] |

| Structure (SMILES) | Potency | activity, negative = toxicity |
| --- | --- | --- |
| COc1ccccc1OP(=O)(Nc1ccc(Br)cc1)Oc1ccccc1OC |  | inactive: -12.4% |
| Cc1ccc(-c2nc3ccccc3c(=O)n2-c2ccc(Br)cn2)cc1 |  | inactive: 22.6% |
| N#Cc1cn(C2OC(CO)C(O)C2O)c2ncnc(N)c12 (stereo unspecified) | active: 0.206 µM |  |
| CCOC(=O)CC1=C(C(=O)OCC)C2(C(=O)N1CC(=O)OC)C(C#N)=C(N)Oc1ccccc12 (stereo unspecified) | inconclusive [rising, single point] |  |
| Nc1c(N2CCCC2)cc(Cl)c2nonc12 | inconclusive [cytotoxic, single point] |  |
| COC(=O)C1=C(c2ccc3ccccc3c2)C[C@@H]2CC[C@H]1N2C(=O)N1CCCC1 |  | inactive: -17.8% |
| CC12CC[C@H]3[C@@H](CCC4(O)C[C@H](O)CCC34/C=N/NC(=O)c3ccccc3O)C1(O)CCC2C1=CC(=O)OC1 (stereo partly specified) | active: 18.4 µM |  |
| Cc1ccc(NP(=O)(Nc2ccc(C)cc2)Oc2ccccc2)cc1 | inconclusive [cytotoxic, single point] |  |
| Cc1ccc(C(C)C)c(OCC#CCN2CCCC2)c1 |  | inactive: -0.157% |
| CC1C=CCCC12C(=O)NC(=O)NC2=O (stereo unspecified) |  | inactive: 9.8% |
| CCOC(=O)[C@]12Cc3cc(OC)ccc3[C@H]1N(CC(=O)OC)C(=O)c1cc(OC)ccc12 | inconclusive [cytotoxic, single point] |  |
| CC12CN3CCN(CC(C3)C1O)C2 (stereo unspecified) |  | inactive: 14.9% |
| COc1ccc(CN(CCc2c[nH]c3ccccc23)Cc2ccc(OC)cc2)cc1 | inconclusive [cytotoxic, single point] |  |
| CCN(CC)C(=O)c1ccc(NC(=O)c2ccc3c(c2)NC(=O)CS3)cc1 |  | inactive: -5.65% |
| CC=C(CC)C1(CCC)C(=O)NC(=S)NC1=O |  | inconclusive: 19.3% |
| CN(C)c1ccc(-[n+]2c(-c3ccccc3)cc(-c3ccccc3)cc2-c2ccccc2)cc1 | active: 2.59 µM |  |
| CN(C)C(=O)Oc1ccc(OCc2nc3ccccc3[nH]2)cc1 | active: 6.51 µM |  |
| CCc1ccc(NP(=O)(Oc2ccccc2F)Oc2ccccc2F)cc1 | active: 23.1 µM |  |
| O=c1[nH]c2ccccc2o1 |  | inactive: -1.89% |
| c1ccc2c(c1)OCC(C1=NCCN1)O2 (stereo unspecified) | inconclusive [cytotoxic, single point] |  |
| O=P(OCC(F)(F)C(F)F)(N1CCOCC1)N1CCOCC1 |  | inactive: 13.3% |
| Nc1ccc([N+](=O)[O-])cc1 | inconclusive [cytotoxic, partial curve] |  |
| C[C@@H]1O[C@@H](O[C@@H]2C=C3CCC4C(CC[C@]5(C)[C@@H](c6ccc(=O)oc6)CC[C@]45O)[C@@]3(C)CC2)[C@H](O)[C@H](O)[C@H]1O (stereo partly specified) | active: 0.0092 µM |  |
| COC1C(O)C(C)OC(OC2CCC3(C=O)C(CCC4C3CCC3(C)C(C5=CC(=O)OC5)CCC43O)C2)C1O (stereo unspecified) | active: 0.0184 µM |  |
| O=C(COc1ccc(Cl)cc1)N(c1ccccc1Cl)C1CN2CCC1CC2 (stereo unspecified) | active: 16.4 µM |  |
| Cc1ccc(C(=O)SC2=NCCS2)cc1 | inconclusive [cytotoxic, single point] |  |

| Structure (SMILES) | Potency | activity, negative = toxicity |
| --- | --- | --- |
| Cc1ccc(NP(=O)(Oc2ccccc2F)Oc2ccccc2F)cc1 | inconclusive [cytotoxic, single point] |  |
| O=c1cccc2n1CC1CC2CN(C(c2ccccc2)c2sc3ncnn3c2O)C1 (stereo unspecified) |  | inactive: -0.968% |
| C1CCCN(C2CCNCC2)CC1 |  | inactive: -2.83% |
| C=CCCC[C@@H]1OC(=O)CNC(=O)C([C@@H](C)CC)NC(=O)[C@@H]2CCCN2C(=O)C([C@@H](C)CC)OC(=O)[C@H](Cc2ccccc2)N(C)C(=O)[C@H](C(C)C)NC(=O)C1(C)C (stereo partly specified) | inconclusive [cytotoxic, single point] |  |
| CC(O)(CS(=O)(=O)c1cccc(C(F)(F)F)c1)C(=O)Nc1cccc(C(F)(F)F)c1 (stereo unspecified) | inconclusive [cytotoxic, single point] |  |
| CCCCCCCCN=Cc1c(O)[nH]c(=O)[nH]c1=O | inconclusive [cytotoxic, full curve, poor fit] |  |
| COC(=O)C1=C(c2ccc(F)cc2F)C[C@@H]2CC[C@H]1N2C(=O)NCc1ccc(C(F)(F)F)cc1 |  | inactive: -3.99% |
| CCCCCCCC(=O)NC(Oc1ccccc1[N+](=O)[O-])C(Cl)(Cl)Cl (stereo unspecified) |  | inactive: 0% |
| COc1ccccc1N1CCN(Cc2ccc3c(c2)OCO3)CC1 |  | inconclusive: 2.86% |
| Cc1cc(C)n(CCOC(=O)C2C(C=C(Cl)Cl)C2(C)C)n1 (stereo unspecified) | inconclusive [cytotoxic, partial curve] |  |
| CCc1c(C(=O)NN2C(=O)C3C4CCC(O4)C3C2=O)csc1C (stereo unspecified) |  | inactive: 14.5% |
| O=C1NC(=O)C2(CCCc3ccc(N(CCCl)CCCl)cc32)N1 (stereo unspecified) | inconclusive [cytotoxic, single point] |  |
| Cc1cccc(NC(=S)N/N=C/c2ccc([N+](=O)[O-])s2)c1 | inconclusive [cytotoxic, single point] |  |
| O=[N+]([O-])c1ccc(N2CCNCC2)cc1N1CCCCCC1 | inconclusive [cytotoxic, single point] |  |
| CC(=NCCC1=CCCCC1)c1c(O)n(C)c(=O)n(C)c1=O |  | inactive: -2.11% |
| Cc1ccccc1CN1Cc2cnnn2-c2ccccc2C1C#N (stereo unspecified) | active: 6.51 µM |  |
| COc1ccc2c(c1)C(NC(C)=O)CCc1cc(OC)c(OC)c(OC)c1-2 (stereo unspecified) | inconclusive [cytotoxic, full curve] |  |
| Cc1ccc(N2C(=O)CC(=O)NC2=O)cc1 |  | inactive: 8.67% |
| COc1ccc(-n2c(=O)[nH]c3ccccc3c2=O)cc1 |  | inactive: -3.9% |
| COc1cccc(Oc2coc3cc(OC(=O)N(C)C)ccc3c2=O)c1 |  | inactive: -3.18% |
| NC(N)=Nc1ccc2[nH]c3c(c2c1)C[C@@]1(O)[C@H]2Cc4ccc(O)c5c4[C@@]1(CCN2CC1CC1)[C@H]3O5 | active: 16.4 µM |  |
| O=C(Cn1c(=S)[nH]c2ccccc2c1=O)N1CCC2(CC1)OCCO2 | inconclusive [rising, single point] |  |
| Cc1ccc(S(=O)(=O)N2Cc3cc(-c4ccccc4)ccc3-n3nncc3C2)cc1 |  | inactive: -6.93% |
| COC(=O)C1=C(c2ccc(Cl)c(C(F)(F)F)c2)C[C@@H]2CC[C@H]1N2C(=O)NCCOc1ccccc1Cl | inconclusive [cytotoxic, single point] |  |
